PubChem BioAssay AID504466 (National Center for Advancing Translational Sciences (NCATS), 2011)
Hit rate of the full screen: of about 330,000 compounds, about 4,200 (1.3%) were called active. This list was built around the results that the source calls inconclusive (neither active nor inactive); the mix of calls is not that of the screen. The call rests on the fitted dose curve; in most records, active means well fitted activation curve with a large enough effect; inconclusive means small, poorly fitted or top-dose-only effect; inactive means no such curve, though single readings can be large or run the other way. Where the call is inconclusive, the potency comes from a doubtful curve fit.

Test: qHTS screen for small molecules that induce genotoxicity in human embryonic kidney (HEK293T) cells expressing luciferase-tagged ELG1; further: nearly all actives have a fitted effect of over 60% in size; on activity change, positive = activation: % of control where 0% means no effect
Conditions: HEK293T ELG1-luciferase reporter, luminescence, 16 h; series mostly up to 46 µM; activity change, positive = activation: at the top concentration
Method in brief: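 Reporter readout depends on ELG1 protein level, which increases with genetic stress. After 16 hr compound exposure at 37 °C, luciferase activity was quantified using ONE-Glo.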
Potency means the concentration at half of the fitted maximal effect; tags describe the fitted curve by direction and shape.

Compound | Potency | activity change, positive = activation
Cc1c(C(=O)Oc2cccc3ccccc23)cnn1-c1ccccc1 | active: 8.91 µM | 
Cc1ccc(NC(=S)N2CCCC(O)C2)cc1 (stereo unspecified) | inconclusive: 23.1 µM [activator, partial curve, poor fit] | 
Cc1nn(-c2ccccc2)c(C)c1/C=N/n1c(-c2ccc(Cl)cc2)n[nH]c1=S |  | inactive: 10.1%
O=C(c1cc2cc(F)ccc2[nH]1)N1CCc2ccccc21 | inconclusive: 5.17 µM [activator, partial curve, poor fit] | 
Cc1cc(C(=O)COC(=O)c2ccc[nH]c2=O)c(C)n1-c1ccc(F)cc1 | inconclusive: 4.11 µM [activator, partial curve] | 
Cc1ccc2nc3c(nc2c1)-c1ccccc1C3=O | inconclusive: 13 µM [activator, partial curve] | 
Cc1ccc2occ(CN3CCN(c4ccccc4)CC3)c(=O)c2c1 | inconclusive: 29.1 µM [activator, partial curve, poor fit] | 
O=C(/C=C\c1ccc(-c2cccc([N+](=O)[O-])c2)o1)N1CCOCC1 | inconclusive: 11.6 µM [activator, partial curve] | 
COC(=O)c1c(NC(=O)c2nn(C)cc2Cl)sc2c1CCCC2 |  | inactive: -5.71%
COC(=O)c1sc(NC(=O)CSc2nnc(Cn3nnc4ccccc43)n2C)nc1C | inconclusive: 23.1 µM [activator, single point] | 
CC1=C(C(=O)Nc2ccc(CC(=O)NCc3ccccc3C)cc2)SCCO1 | inconclusive: 18.3 µM [activator, partial curve, poor fit] | 
CCOc1cc(N2CCOCC2)c(OCC)cc1NC(=O)COC(=O)CCOc1ccc(C)cc1 | inconclusive: 23.1 µM [activator, partial curve, poor fit] | 
Nc1c(C(=O)c2ccc(Br)s2)oc2ccccc12 | inconclusive: 16.4 µM [activator, single point] | 
COc1cc(-c2n[nH]c(=S)n2/N=C/c2cccn2C)cc(OC)c1OC | inconclusive: 18.3 µM [activator, single point] | 
O=C(OCc1nc2ccccc2s1)C1CCN(S(=O)(=O)c2cccs2)CC1 | active: 11.2 µM | 
O=C(CCSc1ccc(Cl)cc1)NC12CC3CC(CC(C3)C1)C2 | inconclusive: 14.6 µM [activator, partial curve, poor fit] | 
CCOC(=O)COc1ccc(S(=O)(=O)NCc2ccncc2)cc1 | inconclusive: 5.8 µM [activator, partial curve] | 
Cc1cccnc1Nc1nc(-c2ccc(O)c(O)c2)cs1 | active: 5.17 µM | 
c1ccc(Cn2nnc3c(N4CCCC4)ncnc32)cc1 | inconclusive: 20.6 µM [activator, partial curve, poor fit] | 
COc1cc(OC)cc(C(=O)Nc2ccc(Nc3ccccc3)cc2)c1 |  | inactive: 8.44%
CCOC(=O)c1ccc(NC(=O)c2ccccc2)cc1 | inconclusive: 9.2 µM [activator, partial curve] | 
Nc1[nH]n(-c2ccccc2)c(=O)c1N=Nc1ccccc1 | active: 20.6 µM | 
CC(=O)N1CCc2cc(N=NC3=C(O)CCCC3=O)ccc21 | inconclusive: 9.2 µM [activator, partial curve, poor fit] | 
COc1ccc(N2C(=O)c3ccccc3NC2c2ccc(OC)c(CSc3ccccn3)c2)cc1 (stereo unspecified) | inconclusive: 23.1 µM [activator, partial curve, poor fit] | 

Compound | Potency | activity change, positive = activation
C=CCN(c1ccc(C(=O)NCCc2ccccc2)cc1)S(C)(=O)=O | inconclusive: 20.6 µM [activator, single point] | 
Cn1cc(Cl)c(/C(N)=N/OC(=O)c2ccccc2C(F)(F)F)n1 | active: 20.6 µM | 
O=C(NCc1csc(-c2cccs2)n1)C1CCCCC1 | inconclusive: 10.3 µM [activator, partial curve, poor fit] | 
CCOC(=O)c1c(S(=O)(=O)Nc2ccc(C)c(F)c2)c(C)n(C)c1C | inconclusive: 32.6 µM [activator, partial curve, poor fit] | 
CSc1cccc(N=C2C(=O)Nc3ccccc32)c1 |  | inactive: 1.08%
Cc1ccc(Oc2ccc(NC(=O)c3ccco3)cc2)cc1 | inconclusive: 10 µM [activator, partial curve, poor fit] | 
O=C(N/N=C\c1cn(-c2ccccc2)nc1-c1ccccc1)c1ccc(Br)o1 |  | inactive: -20.7%
CCn1c(SCC(=O)Nc2cccc(NC(=O)c3cccs3)c2)nnc1-c1ccncc1 |  | inactive: 0.851%
CCN(CCCCN1C(=O)c2ccccc2C1=O)c1ccc2c(c1)C(=O)N(C)C2=O |  | inactive: -15.4%
Cc1[nH]c2ccccc2c1/C=N/Nc1cccc(C(=O)O)c1 | inconclusive: 4.11 µM [activator, partial curve] | 
COc1ccccc1-c1cc(C(F)(F)F)c(C#N)c(=O)[nH]1 |  | inactive: -2.83%
O=C1OC(c2ccc(Br)cc2)=N/C1=C\N1CCCCC1 | active: 14.6 µM | 
O=C(NCC1CCCO1)C(=O)c1c[nH]c2ccccc12 (stereo unspecified) | inconclusive: 10.3 µM [activator, partial curve] | 
O=C(OCC(=O)N1CCCCCC1)c1cccnc1Cl | inconclusive: 18.3 µM [activator, partial curve, poor fit] | 
O=C(Nc1ccnc(=O)[nH]1)c1sc2ccccc2c1Cl | inconclusive: 20.6 µM [activator, partial curve, poor fit] | 
Cn1cccc1CNC(=O)Nc1ccc(Cl)c(Cl)c1 | inconclusive: 18.4 µM [activator, partial curve, poor fit] | 
C=CCNC(=O)c1cc(C(=O)C(C)c2ncc(C(F)(F)F)cc2Cl)c[nH]1 (stereo unspecified) |  | inactive: -0.932%
COc1ccc(-c2noc(CCCC(=O)NC3CCCC3)n2)cc1OC |  | inactive: -5.32%
COC(=O)c1ccc(CC(=O)c2nc3ccccc3s2)cc1 | inconclusive: 18.4 µM [activator, single point] | 
COc1cccc(C2=NOC(C(=O)N3CCOCC3)C2)c1 (stereo unspecified) | inconclusive: 18.4 µM [activator, partial curve] | 
O=C(Nc1ccc(N2CCN(C(=O)c3ccco3)CC2)c(Cl)c1)c1cc2ccccc2o1 |  | inactive: -24.3%
O=C(Oc1ccccc1)c1ccc(NC(=O)c2ccco2)cc1 | inconclusive: 25.9 µM [activator, partial curve, poor fit] | 
COC(=O)c1ccc(NC(=O)c2cc(-c3ccccn3)nc3ccccc23)cc1 | inconclusive: 23.1 µM [activator, partial curve, poor fit] | 
Cn1cnc([N+](=O)[O-])c1S(=O)(=O)c1ccc(Cl)cc1 | inconclusive: 20.6 µM [activator, partial curve, poor fit] | 

Compound | Potency | activity change, positive = activation
Cc1cc(N2CCCC2)ccc1/C=N/n1cnnc1 | inconclusive: 25.9 µM [activator, partial curve, poor fit] | 
Cc1nn(-c2nc3ccccc3s2)c(N)c1Sc1ccc(F)cc1 | inconclusive: 5.17 µM [activator, partial curve, poor fit] | 
CC(=O)OC1CC(C)N(C(=O)c2ccccc2)c2ccc(C)cc21 (stereo unspecified) | active: 20.6 µM | 
CCOC(=O)c1ccc(-c2ccc3[nH]c4ccccc4c(=O)c3c2)cc1F | inconclusive: 7.3 µM [activator, partial curve, poor fit] | 
O=C(NCCOc1ccccc1)c1ccc2n[nH]nc2c1 | inconclusive: 20.6 µM [activator, partial curve, poor fit] | 
CC1CC1C(=O)OCc1cc(=O)n2cc(Br)ccc2n1 (stereo unspecified) | inconclusive: 11.6 µM [activator, partial curve] | 
c1cn2cc(-c3ccc4c(c3)OCO4)nc2s1 | inconclusive: 1.84 µM [activator, partial curve] | 
COc1ccc(CCNS(=O)(=O)c2ccc(Cl)cc2)cc1OC |  | inactive: -8.32%
COC(=O)c1sc(NC(=O)CSc2nnnn2C)nc1C | active: 14.6 µM | 
Cc1ccnc(NC(=S)NC(=O)/C=C/c2ccc(Cl)cc2)c1 |  | inactive: 4.46%
COc1ccccc1-c1nnc(NC(C)=O)s1 | inconclusive: 25.9 µM [activator, partial curve, poor fit] | 
Cc1ccc(OCCSc2nc(N)cc(N)n2)cc1 | inconclusive: 9.2 µM [activator, partial curve] | 
Cc1ccc(Nc2nc3nonc3[nH]c2=O)cc1 | inconclusive: 14.6 µM [activator, partial curve, poor fit] | 
CCOc1ccc(Nc2nc(-c3cccnc3)cs2)cc1 | inconclusive: 3.66 µM [activator, full curve] | 
COc1ccc(-c2nnc(SC(C)C(=O)Nc3ccc4c(c3)OCCO4)o2)cc1 (stereo unspecified) | active: 5.8 µM | 
O=C(c1cnn(-c2ccccc2)c1)c1ccccc1O | inconclusive: 3.66 µM [activator, single point] | 
COc1ccc(NC(=O)CSc2nnc(-c3cccs3)n2N)c(OC)c1 |  | inactive: -2.27%
Clc1ccccc1OCc1nnc(-c2ccccc2Br)o1 | inconclusive: 18.4 µM [activator, partial curve] | 
CCCCn1c(SCC(=O)Nc2nccs2)nc2ccccc2c1=O | inconclusive: 32.6 µM [activator, partial curve, poor fit] | 
CN(C)c1ccc(-c2nnc(SCC3CCCO3)n2C)cc1 (stereo unspecified) | inconclusive: 13 µM [activator, partial curve, poor fit] | 
COc1ccc(CC(CN)c2ccccc2)cc1 (stereo unspecified) |  | inactive: -4.84%
c1ccn2cc(C34CC5CC(CC(C5)C3)C4)nc2c1 |  | inactive: -6.72%
Cc1ccc(NC(=O)Nc2ccccc2C(=O)NCc2ccccc2)cc1 | inconclusive: 13 µM [activator, partial curve, poor fit] | 
